Reference: PubChem BioAssay (Tox21)
This list was built around the results that the source calls inconclusive (neither active nor inactive); the mix of calls is not that of the screen. Potencies of inconclusive entries are left out as doubtful fits. Calls of active or inactive are those of the source. The call rests on the fitted dose curve; in most records, active means well fitted cell-killing curve with a large enough effect in the repeat runs; inconclusive means weak or mixed curves, or effect the other way; inactive means flat fitted curve, though single readings scatter.

assay: qHTS assay to identify small molecule antagonists of the androgen receptor (AR) signaling pathway using the MDA cell line - cell viability counter screen (AID 743041; further: nearly all actives have a fitted effect of over 45% in size); conditions: MDA-kb2 viability, CellTiter-Fluor, 16 h, cells co-treated with R1881 androgen agonist; viability change, negative = cytotoxic: at 70.3 µM (top of the series) unless noted
Method in brief: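 Using the breast carcinoma line MDA-kb2 AR-luc, test chemicals were co-incubated with R1881 for 16 h; CellTiter-Fluor reagent, added at 15.5 h, provided a fluorescence measure of live cells.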
On the % scale 0 is the no-effect control and ±100 the full control effect; potency means the concentration at half of the fitted maximal effect; tags describe the fitted curve by direction and shape.

| Compound | Potency | viability change, negative = cytotoxic |
| --- | --- | --- |
| Nc1nc2ccc([N+](=O)[O-])cc2s1 | inconclusive [cytotoxic, partial curve, poor fit] | – |
| CC1(CN2CCC(n3c(=O)[nH]c4ccccc43)CC2)OCc2ccccc2-n2cccc21 (stereo not given) | inconclusive [cytotoxic] | – |
| Cc1ccc(C(C)C)c(O)c1 | inconclusive [cytotoxic, single point] | – |
| CC[N+](C)(CC)CCOC(=O)C1c2ccccc2Oc2ccccc21 | – | inactive: -1.28% |
| CCCCN(CCCC)c1ccc(C(=O)c2ccccc2C(=O)O)c(O)c1 | – | inactive: -18.5% [at 95 µM] |
| NCCO | – | inconclusive: 28.3% |
| Cn1cnc([N+](=O)[O-])c1Sc1ncnc2nc[nH]c12 | inconclusive [cytotoxic, partial curve, poor fit] | – |
| CC[C@H]1CN2CCc3cc(OC)c(OC)cc3[C@@H]2C[C@@H]1C[C@H]1NCCc2cc(OC)c(OC)cc21 | inconclusive [cytotoxic, full curve] | – |
| C1C[C@@H]2[C@H]3CC[C@H](C3)[C@@H]2C1 | – | inactive: -0.822% |
| O=C(O)C1CCC(C(=O)O)CC1 (stereo not given) | inconclusive [cytotoxic, partial curve, poor fit] | – |
